For 29 molecules, activity change, negative = inhibition results are on record in PubChem BioAssay AID1745853 (National Center for Advancing Translational Sciences (NCATS), 2022).

Test in all cases: Primary Screen for Target Class Profiling of Small Molecule Inhibitors of Methyltransferases
The target in assay [1] is Glycine N-methyltransferase (Homo sapiens) (UniProt Q14749). The settings on record: purified enzyme, MTase-Glo SAH luminescence; measured here: GNMT inhibition; at 40 µM; stronger effect = lower value. An outline of the steps: (§1)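 Each enzyme was assayed with SAM and its substrate. SAH formation detected by MTase-Glo luminescence; single-point 40 uM screen[…].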

Assay [2] deals with Guanidinoacetate N-methyltransferase (Homo sapiens) (UniProt Q14353). Particulars: purified enzyme, MTase-Glo SAH luminescence; measured here: GAMT inhibition; at 40 µM; stronger effect = lower value. The procedure, abridged: as §1
Assay [3] concerns the target Histamine N-methyltransferase (Homo sapiens) (UniProt P50135). The settings on record: purified enzyme, MTase-Glo SAH luminescence; measured here: HNMT inhibition; at 40 µM; stronger effect = lower value. An outline of the steps:
as §1

Assay [4] addresses Nicotinamide N-methyltransferase (Homo sapiens) (UniProt P40261). Particulars: purified enzyme, MTase-Glo SAH luminescence; measured here: NNMT inhibition; at 40 µM; stronger effect = lower value. An outline of the steps:
as §1

The target in assay [5] is Phenylethanolamine N-methyltransferase (Homo sapiens) (UniProt P11086). Particulars: purified enzyme, MTase-Glo SAH luminescence; measured here: PNMT inhibition; at 40 µM; stronger effect = lower value. The procedure, abridged: as §1

Some of the results follow. These are further read-outs of the screen, such as a control signal, another cell line or another target. No call is given for them.
% is set by controls: 0 for no effect and ±100 for the full control effect.

In the case of `COc1cccc(CNC(=O)c2sc(=S)n3c2[nH]c(=O)c2cc4c(cc23)OCO4)c1`, the activity change, negative = inhibition in assay [1] was -40.5%; in assay [2], 3.1%; in assay [3], 3.62%; in assay [4] it was -42.9%; in assay [5], -31.3%.

Consider `CN1C[C@@H](NC(=O)Nc2ccccc2)C[C@H]1c1nc(Cc2ccccc2)no1`, for which the activity change, negative = inhibition in assay [1] was -2.71%; in assay [2] it was -0.596%; in assay [3] it was -2.58%; in assay [4], -2.05%; in assay [5], -1.16%.

On to `CCCC1c2ccc(C)n2CCN1C(=O)Nc1ccc(Br)cc1F` (stereo not drawn), for which the activity change, negative = inhibition in assay [1] is -2.53%; in assay [2] it was 3.13%; in assay [3], -12.4%; in assay [4] it was -2.87%; in assay [5], -5.16%.

Regarding `CC(C)NS(=O)(=O)c1ccc2c(c1)nc(-c1cc(C(C)(C)C)[nH]n1)n2C(C)C`, the activity change, negative = inhibition in assay [1] is -4.09%; in assay [2] it was 0.742%; in assay [3] it was -0.204%; in assay [4], -4.44%; in assay [5], -2.21%.

`COc1ccc(NC(=O)/C=C/c2ccc(Cl)cc2)cc1`: the activity change, negative = inhibition is -9.66% in assay [1]; 1.01% in assay [2]; -4.31% in assay [3]; -54.5% in assay [4]; -4.69% in assay [5].

Regarding `Cc1nn(CCO)cc1-c1c(-c2ccccc2)ncn1CC(=O)O`, the activity change, negative = inhibition in assay [1] is -4.08%; in assay [2] it was -5.76%; in assay [3], -2.58%; in assay [4], -5.44%; in assay [5] it was -7.82%.

With `COc1cc(OC)cc(-c2ccc3c(-c4ccc(F)cc4)[nH]nc3n2)c1`, the activity change, negative = inhibition in assay [1] was -2.5%; in assay [2], -4.08%; in assay [3] it was 7.47%; in assay [4], -15.2%; in assay [5], 1.3%.

Consider `CNC(=O)c1cc2c(cn1)[nH]c1ccccc12`, for which the activity change, negative = inhibition in assay [1] was -9.46%; in assay [2], 1.71%; in assay [3], -6.49%; in assay [4], -11.7%; in assay [5] it was 1.57%.

Turning to `COc1cccc(-c2ccc(NC(=O)C3=C(C(=O)O)CCC3)c(F)c2)c1`, the activity change, negative = inhibition was -12.3% in assay [1]; -0.684% in assay [2]; 4.52% in assay [3]; -18.4% in assay [4]; -0.773% in assay [5].

With `CCC(C)C(=O)O[C@H]1[C@H](O)[C@@]2(COC(C)=O)C(CC1(C)C)C1=CCC3[C@@]4(C)CC[C@H](O[C@@H]5O[C@H](C(=O)O)[C@@H](O)[C@H](O)[C@H]5O)[C@@](C)(CO)C4CC[C@@]3(C)[C@]1(C)C[C@@H]2O` (stereo partly drawn), the activity change, negative = inhibition in assay [1] is 3.05%; in assay [2], 13.5%; in assay [3], 11.9%; in assay [4] it was -4.59%; in assay [5], 9.4%.

For `O=C(O)CCc1ccc(NCc2cccc3c2CCCN3CCOc2ccccc2)cc1F`, the activity change, negative = inhibition in assay [1] is -27.8%; in assay [2] it was -7.53%; in assay [3], -4.77%; in assay [4] it was -52.5%; in assay [5], -10.2%.

For the molecule `CC(C)=CCNc1ncnc2c1ncn2[C@@H]1O[C@H](CO)[C@@H](O)[C@H]1O`, the figures for the activity change, negative = inhibition in assay [2], in assay [4] and in assay [5] were 496%, 397% and 139%, respectively.

For `OCCCNc1cc(-c2ccnc(Nc3cccc(Cl)c3)n2)ccn1`, the activity change, negative = inhibition is -87.5% in assay [1]; -74.2% in assay [2]; -86.9% in assay [3]; -79.6% in assay [4]; -85.3% in assay [5].

Turning to `COc1cc(C(=O)OC[C@H]2O[C@H](O[C@@]3(CO)O[C@@H](CO)[C@H](O)[C@H]3O)[C@H](O)[C@@H](O)[C@@H]2O)ccc1O`, the activity change, negative = inhibition is 4.36% in assay [1]; 8.62% in assay [2]; 9.52% in assay [3]; -3.63% in assay [4]; 8.1% in assay [5].

Consider `COc1ccccc1NC(=O)CSc1nnc2n(CC(C)C)c(=O)c3ccc(Cl)cc3n12`, for which the activity change, negative = inhibition was -0.861% in assay [1]; 0% in assay [2]; 3.07% in assay [3]; 1.29% in assay [4]; 2.11% in assay [5].

Regarding `COc1cccc(CN2C(=O)CCCCC2C(=O)NCCc2c[nH]c3ccc(OC)cc23)c1` (stereo not drawn), the activity change, negative = inhibition in assay [1] was -0.81%; in assay [2] it was -0.105%; in assay [3] it was 0.047%; in assay [4], -8.64%; in assay [5] it was -6.82%.

`COC(=O)[C@]1(C)CCC[C@@]2(C)C(=O)CC[C@H]3C(=O)C=C(CC[C@@H]21)C3O` (stereo partly drawn): the activity change, negative = inhibition in assay [1] was 0%; in assay [2] it was 6.38%; in assay [3] it was 9.17%; in assay [4] it was -8.38%; in assay [5], 1.67%.

In the case of `Clc1cccc(-c2nnnn2Cc2cccnc2)c1Cl`, the activity change, negative = inhibition is 6.88% in assay [1]; 3.72% in assay [2]; 5.95% in assay [3]; -15.2% in assay [4]; -1.81% in assay [5].

Regarding `Cc1ccccc1CSc1nnc2n(Cc3ccccc3)c(=O)c3ccc(C(=O)NC(C)C)cc3n12`, the activity change, negative = inhibition amounted to 8.31% in assay [1]; 1.39% in assay [2]; 7.25% in assay [3]; 9.7% in assay [4]; 10.8% in assay [5].

As for `Cc1ccc(Cn2c(=O)c3ccc(C(=O)NC(C)C)cc3n3c(=O)n(Cc4ccccc4Cl)nc23)cc1`, the activity change, negative = inhibition in assay [1] worked out at 5.28%; in assay [2] it was 1.23%; in assay [3], 8.46%; in assay [4] it was 0.991%; in assay [5], 5.44%.

With `COC(=O)c1ncn2c1C(=O)N(Cc1ccccc1OC)C(C)(C(=O)NC1CCCCC1)C2` (stereo not drawn), the activity change, negative = inhibition in assay [1] is -3.14%; in assay [2] it was 1.67%; in assay [3], -1.58%; in assay [4], -9.14%; in assay [5] it was -0.923%.

`COC(=O)NCC(=O)N1CC[C@@H]2[C@@H](CCC(=O)N2CCc2ccccc2)C1`: the activity change, negative = inhibition was -3.65% in assay [1]; -6.13% in assay [2]; -1.63% in assay [3]; -12.7% in assay [4]; -5.03% in assay [5].

With `CC(=O)OC[C@@]12C(=O)C[C@@H](C)[C@]3(C[C@@H](c4ccoc4)O[C@H]3OC(C)=O)[C@H]1CCC[C@]21CO1`, the activity change, negative = inhibition in assay [1] was -5.76%; in assay [2], -2.36%; in assay [3], 6.85%; in assay [4], -18.2%; in assay [5], -12.4%.

As for `O=C(Nc1ccccc1Cl)N1CCC(n2cc(C3CCCC3)nn2)CC1`, the activity change, negative = inhibition was -2.28% in assay [1]; -4.9% in assay [2]; -1.47% in assay [3]; -5.69% in assay [4]; -3% in assay [5].

Regarding `COc1ccc(CCN2C(=O)c3ccc(-c4ccco4)n3CC2(C)C(=O)NC2CCCC2)cc1OC` (stereo not drawn), the activity change, negative = inhibition in assay [1] is -3.51%; in assay [2] it was 4.25%; in assay [3] it was 0.548%; in assay [4], -34.6%; in assay [5] it was -7.04%.

Turning to `COc1ccc(C(=O)Cn2nc3n(CCc4ccccc4)c(=O)c4ccccc4n3c2=O)cc1OC`, the activity change, negative = inhibition in assay [1] is -3.92%; in assay [2] it was 0%; in assay [3], 11.6%; in assay [4], -5.15%; in assay [5], -1.04%.

As for `CC(C)=CCC/C(C)=C/CO[C@@H]1O[C@H](CO[C@@H]2OC[C@](O)(CO)[C@H]2O)[C@@H](O)[C@H](O)[C@H]1O`, the activity change, negative = inhibition in assay [1] was 1.26%; in assay [2], 9.67%; in assay [3], 10.2%; in assay [4], -3.21%; in assay [5], 8.21%.

With `CCC(CC)Nc1nc(C)c(-c2ccc(OC(F)(F)F)cc2OC)nc1OC`, the activity change, negative = inhibition in assay [1] is -9.13%; in assay [2] it was -16.1%; in assay [3], 0.751%; in assay [4] it was -27.6%; in assay [5] it was -2.41%.

For the molecule `C[C@@H]1O[C@@H](O[C@@H]2[C@@H](O)[C@H](O[C@H]3CC[C@@]4(C)C(CC[C@]5(C)C4CC=C4[C@@H]6CC(C)(C)CC[C@]6(C(=O)O[C@@H]6O[C@H](CO)[C@@H](O)[C@H](O)[C@H]6O)CC[C@]45C)C3(C)C)O[C@H](C(=O)O)[C@H]2O)[C@H](O)[C@H](O)[C@H]1O` (stereo partly drawn), the activity change, negative = inhibition in assay [1] is 2.9%; in assay [2], 1.33%; in assay [3], 7.26%; in assay [4] it was -6.56%; in assay [5], 6.37%.
